Assay results from patent US20140286950A1 (Genentech, published 2014).

How the values were obtained:
[1] = biological target: T1, N-terminal HIS-tagged human CD83 stably expressed on CHO cells (CHO-hCD83) (human, UniProt Q01151 20-205); test: flow cytometry on CHO cells stably expressing human CD83
T1 construct: also called CHO cells expressing human CD83; not shown: N-terminal HIS tag
T1 sequence: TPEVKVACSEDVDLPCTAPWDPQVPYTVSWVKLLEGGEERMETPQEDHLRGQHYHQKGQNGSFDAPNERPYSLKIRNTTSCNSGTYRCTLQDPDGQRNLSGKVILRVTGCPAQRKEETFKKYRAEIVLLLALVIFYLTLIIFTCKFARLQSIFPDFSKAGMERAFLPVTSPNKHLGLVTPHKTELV
From the text: (§1) CD83 expression on CHO-hCD83 cells and MUTZ-3 derived mDCs was confirmed by staining cells with fluorochrome conjugated antibodies to CD83 and analyzing the cells by flow cytometry on a LSR II flow cytometry using FACSDiva software (Becton Dickinson). Labeled isotype-matched antibodies were used to determine the level of non-specific staining. […] CD83 was expressed on MUTZ-3 derived mDC (black line), but at very low levels on iDC (gray line) (FIG. 1B). Solid histograms represent isotype controls. Following confirmation of cell surface CD83 expression, CHO cells and CHO-hCD83 cells were fixed in 4% PFA for 5 minutes followed by washing with cold 1×PBS. Cells were resuspended in a FACS buffer containing PBS/2% BSA/2 mM EDTA and incubated with 1 μg PE-labeled CD83.Fc or labeled IgG.Fc control protein for 30 minutes on ice in the dark. Cells were washed with FACS buffer and analyzed by flow cytometry. For iDCs and mDCs, cells were labeled with 10 μg/ml PE-labeled CD83.Fc or labeled IgG.Fc control protein prior to fixation and flow cytometry. […] Furthermore, CD83.fc bound to mature DC (black line) but not to immature DC (gray line) (FIG. 1D).

[2] = biological target: T2, endogenous CD83 expressed on mature dendritic cells (MUTZ-3 derived mDCs or human monocyte-derived DCs) (human, UniProt Q01151 20-205); test: flow cytometry on MUTZ-3 derived mature DCs
T2 construct: Endogenous, untagged protein on dendritic cells; also called CD83 on mDC; cell surface CD83
T2 sequence: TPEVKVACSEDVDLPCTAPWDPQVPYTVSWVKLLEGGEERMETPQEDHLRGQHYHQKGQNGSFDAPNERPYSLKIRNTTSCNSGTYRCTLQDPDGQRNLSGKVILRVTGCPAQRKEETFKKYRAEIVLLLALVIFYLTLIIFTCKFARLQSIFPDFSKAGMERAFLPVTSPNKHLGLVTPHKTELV
From the text: as §1

B1: CD83.fc (Fc fusion)
chain: TPEVKVACSEDVDLPCTAPWDPQVPYTVSWVKLLEGGEERMETPQEDHLRGQHYHQKGQNGSFDAPNERPYSLKIRNTTSCNSGTYRCTLQDPDGQRNLSGKVILRVTGCPAQRKEETFKKYGRAQVTDKAAHYTL[sequence of human IgG1 Fc omitted]
modifications: PE-labeled in the flow cytometry binding assays (site not stated)
notes: also called soluble CD83
Does B1 bind [1]?
Result: binds

Does B1 bind [2]?
Result: binds
